# Assay results published in PubChem BioAssay AID1508624 (National Center for Advancing Translational Sciences (NCATS), 2021).
# Screen size: about 48,000 compounds; about 120 (0.25%) were called active. Not shown: some 4% with an inconclusive outcome. Calls come from the whole dose curve; as a rule, active = well fitted activation curve with a large enough effect; inconclusive = small, poorly fitted or top-dose-only effect, or another doubt; inactive = no such curve, though single readings can be large or run the other way. The list shows a part of the results, in another mix than the full data. The source gives no active or inactive call for entries shown without one.
# Test: Primary qHTS for Identification of Small Molecule Activators of Huntingtin-Antisense Promoter Activity; note: nearly all actives have a fitted effect of over 55% in size
# Settings: HEK293 HTT-AS promoter firefly luciferase reporter, 24 h; activity change, positive = activation: at 57.5 µM (top of the series), percent change from vehicle, -100% = no light
# How it was run: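 HEK293 luciferase promoter-reporter cells (2,500/well) plated 24 h, then compounds added at up to 57.5 uM final for 24 h at 37 °C. Firefly luminescence by Dual-Glo, normalized to vehicle (0%) and zero RLU (-100%).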
# Potency is the fitted concentration of half-maximal effect.
SMILES,"activity change, positive = activation",Potency
COc1ccc(C2C(=O)N(C3CCCCCC3)CC(=O)N2Cc2ccc(C)cc2)cc1OC (stereo not drawn),-11.3%,
Cn1c(=O)c2c(ncn2CC(=O)Nc2cccc(C(F)(F)F)c2)n(C)c1=O,-9.84%,
COc1ccccc1N1CCN(C(=O)c2cc3c(=O)n(Cc4ccco4)ccc3nc2C)CC1,-8.04%,
CC(=O)c1ccc(S(=O)(=O)Nc2cccc(-c3ccc(N4CCCCC4)nn3)c2)cc1,30.8%,
Cc1ccc(CNC(=O)CCc2c(C)nn(-c3ccc(N4CCCCC4)nn3)c2C)cc1,5.25%,
CCOc1cc(-c2nc3c(c(CC)nn3-c3ccccc3)c3cc(OC)c(OC)cc23)ccc1O,1.08%,
CCOC(=O)c1c(-c2ccccc2)oc2ccc(NS(=O)(=O)c3ccc(C)cc3C)cc12,-9.64%,
CN(Cc1ccccc1)C(=O)C1CCN(S(=O)(=O)Cc2ccccc2)CC1,-5.59%,
CCOc1ccc(CNC(=O)c2cc3ccccn3n2)cc1OC,-14.2%,
Cc1ccccc1CSc1nc2c(sc3ccccc32)c(=O)n1CCCOC(C)C,inactive: 12.8%,
CCCn1ccc2c(OCC(=O)NCc3ccccc3Cl)cccc2c1=O,inactive: -10.1%,
Cc1cccc(C)c1Nc1c(-c2ccsc2)nc2ccc(Cl)cn12,inactive: -15.3%,
COc1ccc(NC(=O)c2ccc3c(=O)n4nc(Nc5cccc(Cl)c5C)sc4nc3c2)cc1,inactive: -1.21%,
COc1cc2c(-c3ccccc3Cl)nc3c(c(C)nn3-c3ccccc3)c2cc1OC,-11.5%,
Cc1ccc(NC(=O)CSc2nnc(COc3ccc(Cl)cc3)o2)c(C)c1,-2.12%,
Cn1c(=O)n(C)c2cc(N3CCCCC3)c(NC(=O)c3c(F)cccc3F)cc21,-16.8%,
O=C(CSc1nnc2[nH]c(=O)cc(-c3ccccc3)n12)Nc1cc(C(F)(F)F)ccc1Cl,,active: 17.8 µM
CC(C)CN(CCNC(=O)c1cc(-c2ccc(Cl)s2)nc2ccccc12)CC(C)C,inactive: -9.2%,
COc1ccc2c(C)c(CCC(=O)NCc3ccc(OC)c(OC)c3)c(=O)oc2c1,-10.9%,
COc1cccc(NC(=O)C2CCN(S(=O)(=O)c3cc(-c4noc(C)n4)ccc3C)CC2)c1,inactive: -53.4%,
Cc1ccc(NC(=O)c2ccc(F)c(S(=O)(=O)N3CCc4ccccc4C3)c2)cc1F,inactive: -27.9%,
COc1ccccc1CNC(=O)c1cc2c(=O)n(Cc3cccs3)ccc2nc1C,-31.3%,
COc1ccc(Cl)cc1S(=O)(=O)Nc1cccc(-c2ccc(N3CCOCC3)nn2)c1,13.1%,
COc1cc2c(cc1OC)C(c1ccc(F)cc1)N(c1ccc(F)cc1)C(=O)C2 (stereo not drawn),-2.72%,

SMILES,"activity change, positive = activation",Potency
COc1ccc(NC(=O)c2cc3c(=O)n(Cc4ccco4)ccc3nc2C)c(OC)c1,-9.09%,
COc1cc(-c2nnc(SCC(=O)NC(C)C)o2)cc(OC)c1OC,2.4%,
CCOc1ccccc1NC(=O)CN1C(=O)C(=O)c2ccccc21,inactive: -11.8%,
CCCc1cc(=O)oc2cc(C)c3c(-c4ccccc4)c(C)oc3c12,-13.9%,
CC(NC(=O)c1cc2ccccn2n1)c1ccccc1 (stereo not drawn),4.68%,
COc1ccc(NC(=O)CC2C(=O)N(c3ccc(C)cc3)C(=O)N2C2CCCC2)cc1 (stereo not drawn),-24.4%,
Cc1cc(C)c(S(=O)(=O)Nc2ccc(-c3ccc(N4CCCCCC4)nn3)cc2)cc1C,9.07%,
CC(C)c1ccc(S(=O)(=O)N2CCC(n3c(C(F)(F)F)nc4cccnc43)CC2)cc1,-8.56%,
CC(NC(=O)C1CCN(S(=O)(=O)Cc2ccccc2)CC1)c1ccccc1 (stereo not drawn),-5.05%,
COc1cc2c(-c3cccc(Cl)c3)nc3c(c(C)nn3-c3ccccc3)c2cc1OC,-4.41%,
COc1ccc(C2c3cc(OC)c(OC)cc3CC(=O)N2c2ccc(C)cc2)cc1 (stereo not drawn),-22.6%,
COc1ccccc1Nc1nc(-c2ccccc2F)nc2ccccc12,inactive: -30.7%,
Cc1ccccc1CNC(=O)c1cnc2sc(N3CCC(C)CC3)nn2c1=O,10.7%,
CC(C)(C)c1ccc(-c2nc(SCCOc3ccc(Cl)cc3)n3[nH]c(=O)cc3n2)cc1,0.494%,
Clc1ccccc1N1CCN(Cc2nnc(-c3ccccc3)o2)CC1,-15.8%,
Cc1ccc(Cl)cc1-n1c(CCC(=O)O)ccc1-c1cccs1,-1.13%,
CCc1nn(CC(=O)NCc2ccc(OC)cc2OC)c(=O)c2cc3c(OC)cccc3n12,-8.95%,
CCOC(=O)c1ccc(NC(=O)CCc2c(C)n(CC)c3cc(-c4ccccc4OC)nn3c2=O)cc1,inactive: -6.24%,
Oc1cccc(-c2c3nc(c(-c4cccc(O)c4)c4ccc([nH]4)c(-c4cccc(O)c4)c4nc(c(-c5cccc(O)c5)c5ccc2[nH]5)CC4)C=C3)c1,inactive: -26.9%,
O=c1cc(-c2cccc3c2Sc2ccccc2S3)oc(N2CCOCC2)c1,inactive: -24.3%,
CCOc1cccc(C(=O)Nc2ccc(-c3nc4cc(C)cc(C)c4o3)cc2)c1,-4.11%,
Cc1cccc(OCCOCCn2c(-c3ccc(Cl)cc3)nc3ccccc3c2=O)c1C,37.5%,
Cc1ccc(C(=O)NCc2ccc3c(c2)CCN3C(=O)c2ccc(C)cc2)cc1,inactive: -29%,
Cc1cc(=O)n2c(C(=O)Nc3ccc(Br)cc3)c(C(=O)Nc3ccccc3)sc2n1,-9.91%,
